Results published in the antibiotic and cytotoxicity screens of Wong et al. (2023).
Some of the results follow.

Key:
HSkMC = human skeletal muscle cells; test: cytotoxicity call (relative viability < 0.9); settings: 10 µM
HepG2 = test: cytotoxicity call (relative viability < 0.9); settings: 10 µM
S. aureus RN4220 = test: growth inhibition call (relative growth <= 0.2); settings: 50 µM

SMILES	cytotoxicity call (HSkMC)	cytotoxicity call (HepG2)	growth inhibition call (S. aureus RN4220)
O=C(CBr)N1CC([N+](=O)[O-])([N+](=O)[O-])C1	inactive	inactive	inactive
C=CCN=C=S	inactive	active	inactive
C[C@H]1CN([C@@H](C)CO)C(=O)c2c(c3ccccc3n2C)-c2ccccc2CO[C@H]1CN(C)C(=O)Oc1ccccc1	inactive	inactive	inactive
CCC1(c2ccccc2)C(=O)NC(=O)NC1=O	inactive	inactive	inactive
CC(C)[C@@H]1NC[C@@H]2CCCN2C1=O	inactive	inactive	inactive
CC(C)C[C@H](NC(=O)[C@H](CO)NC(=O)CNC(=O)[C@H](CC(C)C)NC(=O)[C@H](CCC(=O)O)NC(=O)[C@H](Cc1ccc(O)cc1)NC(=O)[C@H](CO)NC(=O)[C@H](CC(N)=O)NC(=O)[C@H](Cc1ccccc1)NC(=O)[C@H](CO)NC(=O)[C@@H](N)CSSC[C@H](N)C(=O)N[C@@H](Cc1ccc(O)cc1)C(=O)NCC(=O)N[C@@H](CCCNC(=N)N)C(=O)N[C@@H](CCCCN)C(=O)N[C@@H](CCCCN)C(=O)N[C@@H](CCCNC(=N)N)C(=O)N[C@@H](CCCNC(=N)N)C(=O)N[C@@H](CCC(N)=O)C(=O)N[C@@H](CCCNC(=N)N)C(=O)N[C@@H](CCCNC(=N)N)C(=O)N[C@@H](CCCNC(=N)N)C(=O)O)C(=O)O	inactive	inactive	inactive
C[C@@H]1CC[C@@]2(OC1)O[C@H]1C[C@H]3[C@@H]4CC=C5C[C@@H](O[C@@H]6O[C@H](CO)[C@@H](O[C@@H]7O[C@@H](C)[C@H](O)[C@@H](O)[C@H]7O)[C@H](O)[C@H]6O[C@@H]6O[C@@H](C)[C@H](O)[C@@H](O)[C@H]6O)CC[C@]5(C)[C@H]4CC[C@]3(C)[C@H]1[C@@H]2C	active	active	inactive
OCc1ccco1	inactive	inactive	inactive
COC12CC(COC(=O)c3cncc(Br)c3)CN(C)C1Cc1cn(C)c3cccc2c13 (stereo not given)	inactive	active	inactive
CCC(C)C(=O)OC1CC2(C)C(c3ccoc3)OC(=O)CC23OC2(C)OC34C(OC(=O)C(C)C)C3(O)C(OC(=O)C5(C)OC5C)C5(C)CC3(O)C(C)(C5CC(=O)OC)C14O2 (stereo not given)	inactive	inactive	inactive
CNC(=O)CSP(=S)(OC)OC	inactive	inactive	inactive
COc1ccc2[nH]cc(CCN)c2c1	inactive	inactive	inactive
CCOC1OC2OC3(C)CCC4C(C)CCC(C1C)C24OO3 (stereo not given)	inactive	active	inactive
O=[N+]([O-])c1ccc([As](=O)(O)O)cc1	inactive	active	inactive
COc1ccc(OC(=O)N(C)C[C@H]2OCc3ccccc3-c3c(n(C)c4ccccc34)C(=O)N([C@@H](C)CO)C[C@H]2C)cc1	inactive	inactive	inactive
O=C1CCCC2C3CC(CN12)C1CCCCN1C3.[O-][Cl+3]([O-])([O-])O (stereo not given)	inactive	inactive	inactive
CC(C)(N)Cc1ccccc1	inactive	inactive	inactive
Cc1ccc(OC(=O)N(C)C[C@@H]2OCc3ccccc3-c3c(n(C)c4ccccc34)C(=O)N([C@@H](C)CO)C[C@H]2C)cc1	inactive	inactive	inactive
CC1(C)CCNC1=O	inactive	inactive	inactive
CN1CCc2cc3c(cc2[C@@H]1O)OCO3	inactive	inactive	inactive
O=C1C=CC(=O)c2c(O)cccc21	inactive	active	inactive
O=S(=O)(O)O.Oc1cccc2cccnc12	inactive	active	inactive
CC1(C)S[C@@H]2[C@H](N)C(=O)N2[C@H]1C(=O)O	inactive	inactive	inactive
NC(=O)c1cc([N+](=O)[O-])cc([N+](=O)[O-])c1	inactive	inactive	inactive
CN1CCO[C@H]2CN(c3ncccn3)C[C@@H]21	inactive	inactive	inactive
CC12CCC(=O)C=C1C=CC1C2CCC2(C)C1CCC2(O)CCC(=O)[O-].[K+] (stereo not given)	inactive	inactive	inactive
Cc1ccc(OC(=O)N(C)C[C@@H]2OCc3ccccc3-c3c(n(C)c4ccccc34)C(=O)N([C@H](C)CO)C[C@H]2C)cc1	inactive	inactive	inactive
NC(=O)CN1C[C@H](O)CC1=O	inactive	inactive	inactive
C/C(=C\[C@@H](N)C(=O)O)CP(=O)(O)O	inactive	inactive	inactive
C[C@@H](N)Cc1ccco1	inactive	inactive	inactive
